From the supplement of paper PMC11125491
± gives the standard deviation of the averaged measurements. Growth of baker's yeast expressing single-residue variants of Pneumocystis jirovecii dihydrofolate reductase in 8.8 or 44 µM methotrexate (about 75% and 90% inhibition of the wild type). Selection coefficient per generation; 0 = like wild type, above 0 = less sensitive, below 0 = more sensitive or loss of function. No active / inactive call per row; the paper calls resistant above 0.220 (8.8 µM) or 0.243 (44 µM) together with a significance test. At 44 µM about 15% of codons end with one read or none, so the lowest values are floors (replicate rank correlation 0.74; 0.94 at 8.8 µM).

B1: UniProt A0EPZ9; numbered along this chain (parent)
chain: MDWQKSLTLIVALTLSRGIGLKNDLPWKLKSDMMFFSRVTSGLLVTRSTGQMNVVLMGRKTWESLPAHSRPLKNRINVVISRQEVLDLGGGAYHARSLDDALALLSQIYDSTSKIQLNRVFVIGGGELCKAAMEHSRLNRIIATVIHNEVDCDVFFPIDFRSSQSCLPWRKQDHSVLEAWVGSKVPQGKINENGFIYEFEMWIRDI

Variants of: B1
Assay: selection coefficient against synonymous wild-type codons (log2 per generation); higher = faster growth than wild type
Conditions: with Saccharomyces cerevisiae carrying the variant on a plasmid
Experimental: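 Pooled growth of yeast carrying single-residue variants of P. jirovecii dihydrofolate reductase (own DFR1 gene intact), two passages at 30 °C, three cultures, sequenced before and after. Codons with under 15 starting reads are left out; codons of one change are averaged.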

Variant | selection coefficient against synonymous wild-type codons (log2) (methotrexate 8.8 µM) | selection coefficient against synonymous wild-type codons (log2) (methotrexate 44 µM)
R75T | -0.285 ± 0.11 | -0.0304 ± 0.13
R75V | -0.1 ± 0.066 | 0.0692 ± 0.12
R75W | -0.681 ± 0.12 | -0.393 ± 0.12
R75Y | -0.565 ± 0.072 | -0.106 ± 0.048
I76A | -0.58 ± 0.13 | -0.121 ± 0.1
I76C | -0.425 ± 0.22 | -0.136 ± 0.051
I76D | -0.698 ± 0.025 | -0.194 ± 0.057
I76E | -0.619 ± 0.12 | -0.261 ± 0.046
I76F | -0.516 ± 0.093 | -0.127 ± 0.07
I76G | -0.83 ± 0.041 | -0.325 ± 0.04
I76K | -0.699 ± 0.042 | -0.196 ± 0.047
I76L | -0.219 ± 0.078 | -0.184 ± 0.098
I76M | -0.439 ± 0.063 | -0.0817 ± 0.098
I76N | -0.485 ± 0.052 | 0.0161 ± 0.1
I76P | -0.658 ± 0.04 | -0.155 ± 0.053
I76Q | -0.611 ± 0.012 | -0.108 ± 0.076
I76R | -0.637 ± 0.11 | -0.178 ± 0.025
I76S | -0.606 ± 0.11 | -0.212 ± 0.045
I76T | -0.554 ± 0.16 | -0.142 ± 0.16
I76V | -0.0765 ± 0.037 | -0.17 ± 0.16

Variant | selection coefficient against synonymous wild-type codons (log2) (methotrexate 8.8 µM) | selection coefficient against synonymous wild-type codons (log2) (methotrexate 44 µM)
I76W | -0.734 ± 0.032 | -0.23 ± 0.044
I76Y | -0.566 ± 0.15 | -0.207 ± 0.047
N77A | 0.201 ± 0.024 | 0.29 ± 0.076
N77C | 0.23 ± 0.066 | 0.335 ± 0.049
N77D | -0.276 ± 0.054 | -0.133 ± 0.1
N77E | -0.0531 ± 0.037 | 0.152 ± 0.058
N77G | -0.494 ± 0.12 | -0.251 ± 0.085
N77H | -0.055 ± 0.05 | -0.0473 ± 0.18
N77K | -0.364 ± 0.1 | -0.247 ± 0.059
N77L | 0.227 ± 0.063 | 0.527 ± 0.13
N77M | 0.233 ± 0.05 | 0.375 ± 0.017
N77P | -0.303 ± 0.11 | -0.158 ± 0.058
N77Q | -0.256 ± 0.015 | -0.171 ± 0.09
N77R | -0.502 ± 0.1 | -0.244 ± 0.13
N77S | -0.125 ± 0.053 | -0.117 ± 0.096
N77T | 0.248 ± 0.026 | 0.338 ± 0.046
N77V | 0.402 ± 0.051 | 0.621 ± 0.019
N77W | -0.648 ± 0.1 | -0.257 ± 0.0083
N77Y | -0.556 ± 0.019 | -0.328 ± 0.034
V78A | -0.816 ± 0.051 | -0.269 ± 0.073

Variant | selection coefficient against synonymous wild-type codons (log2) (methotrexate 8.8 µM) | selection coefficient against synonymous wild-type codons (log2) (methotrexate 44 µM)
V78C | -0.528 ± 0.08 | -0.225 ± 0.039
V78E | -0.784 ± 0.027 | -0.237 ± 0.079
V78F | -0.351 ± 0.066 | 0.171 ± 0.58
V78G | -0.683 ± 0.12 | -0.249 ± 0.049
V78I | 0.107 ± 0.039 | 0.179 ± 0.023
V78K | -0.679 ± 0.16 | -0.289 ± 0.038
V78L | -0.534 ± 0.089 | -0.102 ± 0.13
V78M | -0.314 ± 0.067 | -0.201 ± 0.094
V78P | -0.675 ± 0.054 | -0.172 ± 0.049
V78Q | -0.716 ± 0.054 | -0.212 ± 0.036
V78R | -0.746 ± 0.077 | -0.257 ± 0.073
V78S | -0.624 ± 0.11 | -0.211 ± 0.073
V78T | -0.59 ± 0.032 | -0.0878 ± 0.052
V78W | -0.731 ± 0.028 | -0.227 ± 0.057
V79A | -0.67 ± 0.15 | -0.251 ± 0.13
V79C | -0.637 ± 0.14 | -0.221 ± 0.026
V79D | -0.534 ± 0.071 | -0.119 ± 0.059
V79E | -0.702 ± 0.12 | -0.354 ± 0.047
